Test results published in PMC4336329 (PLoS ONE, 2015).
The whole screen tested about 310,000 compounds, of which about 14,000 (4.5%) showed an effect of 50% or more. The effect is printed as a negative number. The list shows a part of the results.

Molecular target: human ether-à-go-go-related gene (hERG) potassium channel (human, UniProt Q12809)
Test: primary screen, population patch clamp on CHO cells stably expressing hERG
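Note: peak tail current of the secondary pulse compared with the same well before compound.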

human ether-à-go-go-related gene (hERG) potassium channel, sequence (Q12809 whole entry, looked up): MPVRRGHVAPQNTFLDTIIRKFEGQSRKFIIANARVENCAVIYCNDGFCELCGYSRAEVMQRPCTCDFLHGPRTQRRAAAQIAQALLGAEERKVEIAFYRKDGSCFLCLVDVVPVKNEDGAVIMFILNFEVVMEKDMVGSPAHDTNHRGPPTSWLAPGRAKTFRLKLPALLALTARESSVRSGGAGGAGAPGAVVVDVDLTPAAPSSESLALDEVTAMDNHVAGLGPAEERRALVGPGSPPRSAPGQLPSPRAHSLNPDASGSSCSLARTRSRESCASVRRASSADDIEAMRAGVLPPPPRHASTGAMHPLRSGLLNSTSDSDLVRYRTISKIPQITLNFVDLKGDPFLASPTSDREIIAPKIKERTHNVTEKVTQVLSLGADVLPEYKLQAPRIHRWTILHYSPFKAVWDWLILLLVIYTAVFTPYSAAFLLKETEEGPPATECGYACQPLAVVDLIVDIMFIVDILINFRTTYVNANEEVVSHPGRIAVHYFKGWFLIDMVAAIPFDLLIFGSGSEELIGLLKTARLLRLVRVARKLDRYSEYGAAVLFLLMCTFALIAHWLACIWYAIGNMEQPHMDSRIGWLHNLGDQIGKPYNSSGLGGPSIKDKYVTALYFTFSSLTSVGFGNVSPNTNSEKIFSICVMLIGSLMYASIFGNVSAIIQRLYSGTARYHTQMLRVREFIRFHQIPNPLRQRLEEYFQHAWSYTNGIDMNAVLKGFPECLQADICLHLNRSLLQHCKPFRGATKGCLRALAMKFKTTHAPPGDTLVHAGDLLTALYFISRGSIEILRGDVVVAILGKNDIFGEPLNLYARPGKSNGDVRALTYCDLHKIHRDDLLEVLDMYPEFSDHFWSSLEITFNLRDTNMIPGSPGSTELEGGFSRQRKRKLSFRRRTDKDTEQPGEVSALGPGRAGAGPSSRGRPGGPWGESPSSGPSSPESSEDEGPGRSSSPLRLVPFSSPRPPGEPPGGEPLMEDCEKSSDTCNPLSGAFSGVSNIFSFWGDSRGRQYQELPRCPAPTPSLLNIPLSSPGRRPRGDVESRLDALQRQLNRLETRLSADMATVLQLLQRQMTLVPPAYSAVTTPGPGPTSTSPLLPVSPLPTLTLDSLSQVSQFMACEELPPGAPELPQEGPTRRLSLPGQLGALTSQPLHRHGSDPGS

In order of rising “hERG current change (%, negative = inhibition) at 10uM” value:
1. CCOc1cc(C=O)cc(Br)c1OCC(=O)NCCc1ccccc1  -81.7%
2. CCC1CCCN1Cn1cnc2c([nH]c3ccc(Cl)cc32)c1=O (stereo not drawn)  -71.5%
3. CN1CCC(N(C)C(=O)c2ccccc2Nc2ccc(SC(F)F)cc2)CC1  -62.2%
4. CC(C)C(c1nnnn1Cc1ccc(F)cc1)N1CCN(C2CCCCC2)CC1 (stereo not drawn)  -61.3%
5. CCN(CC)CCCCCCCCOC(=O)c1cc(OC)c(OC)c(OC)c1.Cl  -50.1%
6. Cl.Fc1ccccc1COc1ccccc1CNCc1ccncc1  -44%
7. O=C(Nc1cc(Cl)ccc1-n1cncn1)c1cncc(Br)c1  -30.5%
8. CC1(C)COC(/C=C/c2ccc([N+](=O)[O-])cc2)=N1  -26.1%
9. CCCC1=C(C(=O)OCC)C(c2ccc(F)cc2)n2ncnc2N1 (stereo not drawn)  -21.3%
10. Nc1c(Cl)ncnc1N1CCN(c2ncnc(Cl)c2N)CC1  -13.7%
11. COCCNC(=S)N(CCc1c(C)[nH]c2ccc(C)cc12)Cc1cc(OC)c(OC)c(OC)c1  -11.8%
12. CCOC(=O)c1c(NC(=O)CSc2nccn2C)sc(C(=O)NC)c1C  -11.5%
13. Cc1c(C(=O)OCC(=O)NCc2ccco2)cccc1[N+](=O)[O-]  -10.9%
14. O=C(c1ccco1)N1CCN(S(=O)(=O)Cc2ccccc2Cl)CC1  -8.49%
15. Cc1cc(C(=O)NC2CCCC(C)C2C)c2ccccc2n1 (stereo not drawn)  -5.11%
16. O=C(NCCCN1CCCC1=O)Nc1ccc(Br)cc1Cl  -4.58%
17. CC[N+](C)(CC)CCC(c1ccccc1)C1CCCCC1 (stereo not drawn)  -3.49%
18. CCC(C(=O)NCCC1=CCCCC1)c1ccccc1 (stereo not drawn)  -2.83%
19. CCN(C(=O)COC(=O)C1=COCCO1)c1ccccc1  -2.33%
20. COC(=O)[C@H](Cc1ccccc1)NC(=O)NC(C)CCc1ccccc1 (stereo partly drawn)  -2.12%
21. COc1ccc(/C=N/NC(=O)CN(CCc2ccccc2)S(=O)(=O)c2ccc(NC(C)=O)cc2)cc1OC  -1.75%
22. CNC(=O)CSc1nnnn1CCCOC  -0.618%
23. Cc1nc(C)n(CC(O)COc2ccc3c(c2)CCC3)n1 (stereo not drawn)  -0.316%
24. COc1ccc(C2C(C#N)=C(N)OC3=C2C(=O)CCC3)c(OC)c1OC (stereo not drawn)  0.978%
25. O=C(OCC(=O)c1c[nH]c2ccccc12)c1cc2ccccc2cc1O  1.38%
26. COc1ccc(C(C)=O)cc1COC(=O)c1cccc(N(C)C)c1  1.74%
27. O=C(Nc1ccccc1N(C(=O)c1ccco1)S(=O)(=O)c1cccs1)c1ccco1  2.89%
28. O=C(Cn1nc(Cl)nc1Cl)c1ccc(F)cc1  4.76%
29. Cc1cccc(NS(=O)(=O)Cc2ccccc2)n1  4.88%
30. CSc1ccccc1C(=O)Nc1cccc(C)c1  5.76%
31. C=CCOc1nc(N(C)C)nc(N(C)C)n1  6.61%
32. N[C@@H](Cc1ccc(N(CCCl)CCCl)cc1)C(=O)O  8.47%
33. O=C(NCc1cccs1)c1ccc(S(=O)(=O)N2CCCCC2)cc1  8.62%
34. COc1ccc(-n2nnnc2SCC(=O)N2CCOCC2)cc1  9.35%
35. NC(=O)c1ccccc1NC(=O)c1ccccc1Cl  10.2%
36. CC(=O)NCCNC(=O)c1ccc(-n2c(C)ccc2C)cc1  11.5%
37. CCC1CCCCN1C(=O)c1ccc([N+](=O)[O-])o1 (stereo not drawn)  11.9%
38. COc1ccc(C)cc1S(=O)(=O)N(C)CC(=O)N1CCCC1  13.2%
39. COc1ccccc1CNC(=O)CCS(=O)(=O)c1ccc2c(c1)CC(C)N2C(=O)C1CC1 (stereo not drawn)  15%
40. COc1ccc(C2CC(c3ccccc3O)=NN2c2ccccc2)cc1 (stereo not drawn)  15.9%
41. O=C(c1ccc(=O)[nH]c1)N1CCCc2ccccc21  17.3%
42. CC(C)(C)NC(=S)NNC(=O)c1cccc(Br)c1  17.4%
43. Cc1cccc(OCC(=O)NCCCNC(=O)c2ccc(C)nc2)c1  17.9%
44. COc1ccc(CNC(=O)C(=O)NC2CCC(C)CC2)cc1 (stereo not drawn)  19.4%
45. O=C(NCc1cccs1)C1CC1  19.6%
